Test results from the supplement of paper PMC4604168 (melanoma cell lines).
The other results are listed elsewhere or left out. Many values rest on one well or one pass, so single values are uncertain.

Legend:
Experiment in all cases: cell count relative to DMSO control; melanoma cells; higher = more viable cells
Settings in all cases: library dose: low library concentration; 72 h
WM115 = system: WM115
WM1716 = system: WM1716
WM1745 = system: WM1745
WM3526 = system: WM3526
WM3619 = system: WM3619
WM451Lu = system: WM451Lu
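Also: cell number obtained by counting DAPI-stained nuclei in high-throughput microscope images with image analysis software, screen run in 1,536-well plates.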

Row | SMILES | cell count (WM115) | cell count (WM1716) | cell count (WM1745) | cell count (WM3526) | cell count (WM3619) | cell count (WM451Lu)
1 | C[C@]12O[C@H](C[C@]1(O)CO)n1c3ccccc3c3c4c(c5c6ccccc6n2c5c31)CNC4=O [Lestaurtinib] + C=CCn1c(=O)c2cnc(Nc3ccc(N4CCN(C)CC4)cc3)nc2n1-c1cccc(C(C)(C)O)n1 [MK1775] (first compound 0.004 µM, partner dose 0.02 µM) | 90.4% | 85.7% | 82.8% | 89.6% | 54.6% | 94.3%
2 | N.N.[Cl][Pt][Cl] [cisplatin] + CN(C)S(=O)(=O)c1ccc2c(c1)/C(=C/c1cc3c([nH]1)CCCC3)C(=O)N2 [SU6656] (first compound 1.6 µM, partner dose 0.4 µM) | 80.1% | 107% | 95.1% | 85.8% | 103% | 88.3%
3 | Cn1cc(C2=C(c3cn(C4CCN(Cc5ccccn5)CC4)c4ccccc34)C(=O)NC2=O)c2ccccc21 [Enzastaurin] + CC1(C)NC(=O)N(c2ccc([N+](=O)[O-])c(C(F)(F)F)c2)C1=O [nilutamide] (first compound 0.8 µM, partner dose 1 µM) | 98.5% | 100% | 79.9% | 101% | 94.8% | 118%
4 | N.N.[Cl][Pt][Cl] [cisplatin] + C#Cc1cccc(Nc2ncnc3cc(OCCOC)c(OCCOC)cc23)c1 [erlotinib] (first compound 1.6 µM, partner dose 0.8 µM) | 94.1% | 98.3% | 97.9% | 119% | 98.5% | 90.2%
5 | Cn1cc(C2=C(c3cn(C4CCN(Cc5ccccn5)CC4)c4ccccc34)C(=O)NC2=O)c2ccccc21 [Enzastaurin] + O=C(Nc1ccccc1)c1cc([N+](=O)[O-])ccc1Cl [GW9662] (first compound 0.8 µM, partner dose 2 µM) | 99.2% | 119% | 93.9% | 113% | 96% | 116%
6 | Cn1cc(C2=C(c3cn(C4CCN(Cc5ccccn5)CC4)c4ccccc34)C(=O)NC2=O)c2ccccc21 [Enzastaurin] + C[As](C)SC[C@H](NC(=O)CC[C@H](N)C(=O)O)C(=O)NCC(=O)O [Darinaparsin] (first compound 0.8 µM, partner dose 0.4 µM) | 123% | 116% | 87.1% | 105% | 102% | 109%
7 | N.N.[Cl][Pt][Cl] [cisplatin] + Cn1nnc2c(C(N)=O)ncn2c1=O [temozolomide] (first compound 1.6 µM, partner dose 2 µM) | 102% | 94.1% | 99.2% | 118% | 87.1% | 103%
8 | Cn1cc(C2=C(c3cn(C4CCN(Cc5ccccn5)CC4)c4ccccc34)C(=O)NC2=O)c2ccccc21 [Enzastaurin] + C[C@@H](Oc1cc(-c2cnn(C3CCNCC3)c2)cnc1N)c1c(Cl)ccc(F)c1Cl [Crizotinib] (first compound 0.8 µM, partner dose 0.2 µM) | 115% | 97.2% | 103% | 109% | 105% | 99.1%
9 | C[C@]12O[C@H](C[C@]1(O)CO)n1c3ccccc3c3c4c(c5c6ccccc6n2c5c31)CNC4=O [Lestaurtinib] + Cc1ccc(NC(=O)c2cccc(N(C)C)c2)cc1NC(=O)c1ccc(O)cc1 [ZM336372] (first compound 0.004 µM, partner dose 2 µM) | 107% | 115% | 99.6% | 66.1% | 98.2% | 86.1%
10 | Cn1cc(C2=C(c3cn(C4CCN(Cc5ccccn5)CC4)c4ccccc34)C(=O)NC2=O)c2ccccc21 [Enzastaurin] + COc1ccc(-c2ccc3c(N4CCOCC4)nc(N4C[C@@H](C)O[C@@H](C)C4)nc3n2)cc1CO [KU0063794] (first compound 0.8 µM, partner dose 0.02 µM) | 96.3% | 96.5% | 103% | 81.7% | 91.4% | 102%
11 | Cn1cc(C2=C(c3cn(C4CCN(Cc5ccccn5)CC4)c4ccccc34)C(=O)NC2=O)c2ccccc21 [Enzastaurin] + Nc1nc(F)nc2c1ncn2[C@@H]1O[C@H](CO)[C@@H](O)[C@@H]1O [fludarabine] (first compound 0.8 µM, partner dose 0.2 µM) | 103% | 120% | 98.4% | 33.3% | 84.5% | 76.3%
12 | Cn1cc(C2=C(c3cn(C4CCN(Cc5ccccn5)CC4)c4ccccc34)C(=O)NC2=O)c2ccccc21 [Enzastaurin] + N.N.[Cl][Pt][Cl] [cisplatin] (first compound 0.8 µM, partner dose 1.6 µM) | 102% | 92.3% | 84.9% | 108% | 95.4% | 92.7%
